{"source": "the BET-seq Pho4 binding data (Le et al. 2018)", "note": "The list shows a part of the results. Values were computed here from the reads of four pooled replicates and scatter widely."}
{"target": "T1, Pho4 (S. cerevisiae) (UniProt P07270)", "T1 sequence": "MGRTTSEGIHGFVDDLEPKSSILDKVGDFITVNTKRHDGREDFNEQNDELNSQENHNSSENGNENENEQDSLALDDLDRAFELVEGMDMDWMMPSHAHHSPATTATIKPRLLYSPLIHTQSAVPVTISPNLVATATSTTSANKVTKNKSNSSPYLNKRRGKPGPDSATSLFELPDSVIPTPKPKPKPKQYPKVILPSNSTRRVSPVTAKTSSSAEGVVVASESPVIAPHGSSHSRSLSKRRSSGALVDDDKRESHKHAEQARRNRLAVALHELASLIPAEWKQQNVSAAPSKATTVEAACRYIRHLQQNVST", "test": "relative binding free energy (BET-seq); higher = weaker binding", "details": "reference: library average", "units": {"relative binding free energy": "kcal/mol"}}
{"sequence": "GAGCGCACGTGGGTGG", "relative binding free energy": -0.09}
{"sequence": "TCTTGCACGTGAAGTA", "relative binding free energy": 0.31}
{"sequence": "GTAATCACGTGTACGG", "relative binding free energy": 0.27}
{"sequence": "TATTGCACGTGGGTTA", "relative binding free energy": -0.05}
{"sequence": "GATATCACGTGCGGGG", "relative binding free energy": 0.2}
{"sequence": "TAAGGCACGTGATAGG", "relative binding free energy": -0.07}
{"sequence": "AAGGGCACGTGACGGG", "relative binding free energy": -0.05}
{"sequence": "TTGGTCACGTGAGCAA", "relative binding free energy": 0.38}
{"sequence": "AAAGCCACGTGGGGGA", "relative binding free energy": -0.13}
{"sequence": "ATAAACACGTGGGCGG", "relative binding free energy": -0.18}
{"sequence": "GATCTCACGTGAGGGT", "relative binding free energy": 0.41}
{"sequence": "TGGAACACGTGTGAGA", "relative binding free energy": 0.1}
{"sequence": "TGCTTCACGTGGTCGT", "relative binding free energy": 0.24}
{"sequence": "GGGGGCACGTGTTTAG", "relative binding free energy": 0.07}
{"sequence": "GGCGTCACGTGGAGGA", "relative binding free energy": 0.11}
{"sequence": "CAGGACACGTGGGAGT", "relative binding free energy": -0.03}
{"sequence": "CGCGGCACGTGATTGG", "relative binding free energy": -0.01}
{"sequence": "ATTGTCACGTGTTGCT", "relative binding free energy": 0.03}
{"sequence": "AAGCTCACGTGGGTAG", "relative binding free energy": 0.1}
{"sequence": "CGTATCACGTGGATGG", "relative binding free energy": 0.09}
{"sequence": "GAGTGCACGTGGCTTA", "relative binding free energy": 0.03}
{"sequence": "CTTGTCACGTGGTATC", "relative binding free energy": -0.01}
{"sequence": "TTGGGCACGTGTTATT", "relative binding free energy": -0.01}
{"sequence": "AGATGCACGTGGATAG", "relative binding free energy": 0.04}
{"sequence": "GTGAGCACGTGGAGGC", "relative binding free energy": -0.14}
{"sequence": "CATTTCACGTGCGGTG", "relative binding free energy": 0.26}
{"sequence": "TAGATCACGTGGGGAA", "relative binding free energy": 0}
{"sequence": "CCGAGCACGTGTGGGT", "relative binding free energy": -0.13}
{"sequence": "ATCGTCACGTGATGGG", "relative binding free energy": 0.26}
{"sequence": "AGCGTCACGTGTGTTG", "relative binding free energy": 0.06}
{"sequence": "GTGAACACGTGTTTAT", "relative binding free energy": -0.16}
{"sequence": "TTTAACACGTGTTGCA", "relative binding free energy": -0.02}
{"sequence": "AGCTTCACGTGTTTAT", "relative binding free energy": 0.33}
{"sequence": "TCTTTCACGTGGTCGT", "relative binding free energy": 0.15}
{"sequence": "ATGGTCACGTGGCTTG", "relative binding free energy": 0.04}
{"sequence": "TCTGGCACGTGCGCGG", "relative binding free energy": -0.21}
{"sequence": "GGTTACACGTGCAGAT", "relative binding free energy": 0.16}
{"sequence": "CTGATCACGTGGTTGG", "relative binding free energy": 0.04}
{"sequence": "GTATGCACGTGGCATT", "relative binding free energy": -0.09}
{"sequence": "CTTTTCACGTGTTTTA", "relative binding free energy": 0.38}
{"sequence": "AAGGTCACGTGTAGCG", "relative binding free energy": 0.19}
{"sequence": "GGGGTCACGTGAGCAG", "relative binding free energy": 0.29}
{"sequence": "GTTACCACGTGTGGGC", "relative binding free energy": 0.03}
{"sequence": "TACATCACGTGGGGGG", "relative binding free energy": -0.06}
{"sequence": "ATAAGCACGTGATATG", "relative binding free energy": -0.07}
{"sequence": "TGAGGCACGTGGTGCG", "relative binding free energy": -0.16}
{"sequence": "AGAGTCACGTGTGGTT", "relative binding free energy": 0.19}
{"sequence": "GGCAGCACGTGGGTCA", "relative binding free energy": -0.12}
{"sequence": "AGTGTCACGTGCAAGG", "relative binding free energy": 0.05}
{"sequence": "AGGGGCACGTGATCAG", "relative binding free energy": 0}
{"sequence": "TAGCTCACGTGAAGGT", "relative binding free energy": 0.41}
{"sequence": "CATTGCACGTGTAGTT", "relative binding free energy": -0.04}
{"sequence": "TGGATCACGTGGGGGG", "relative binding free energy": 0.07}
{"sequence": "TTTTACACGTGAGATT", "relative binding free energy": 0.33}
{"sequence": "TTCGTCACGTGCGGTA", "relative binding free energy": 0.01}
{"sequence": "CTAGGCACGTGGTTGG", "relative binding free energy": -0.3}
{"sequence": "AGTGTCACGTGGGGTG", "relative binding free energy": -0.13}
{"sequence": "GGTAACACGTGGGCTG", "relative binding free energy": -0.06}
{"sequence": "GAAGGCACGTGTCGGT", "relative binding free energy": -0.05}
{"sequence": "TGTTTCACGTGAGTAC", "relative binding free energy": 0.3}
{"sequence": "TGTGACACGTGATATG", "relative binding free energy": -0.13}
{"sequence": "AGGTCCACGTGGGGGG", "relative binding free energy": -0.2}
{"sequence": "AGGGGCACGTGTTGTG", "relative binding free energy": -0.11}
{"sequence": "ACTGGCACGTGAGGAT", "relative binding free energy": 0.2}
{"sequence": "TAGGGCACGTGGTCAG", "relative binding free energy": -0.32}
{"sequence": "AGGAACACGTGGAGGT", "relative binding free energy": 0.09}
{"sequence": "TATCTCACGTGTCGTT", "relative binding free energy": 0.25}
{"sequence": "AGGTTCACGTGAACGT", "relative binding free energy": 0.41}
{"sequence": "GTCATCACGTGTTGAT", "relative binding free energy": 0.1}
{"sequence": "GGAGGCACGTGTAGAT", "relative binding free energy": 0.09}
{"sequence": "TTGTACACGTGTAGCA", "relative binding free energy": 0.06}
{"sequence": "GTTTGCACGTGGCGAT", "relative binding free energy": 0.07}
{"sequence": "TCGTGCACGTGCTGGT", "relative binding free energy": -0.03}
{"sequence": "TGGTACACGTGCACGG", "relative binding free energy": 0.14}
{"sequence": "ATTTGCACGTGATCTG", "relative binding free energy": 0.04}
{"sequence": "TAGCACACGTGGGTAG", "relative binding free energy": -0.12}
{"sequence": "TTTCACACGTGTTGGC", "relative binding free energy": 0.33}
{"sequence": "TGCTGCACGTGTAGTG", "relative binding free energy": -0.01}
{"sequence": "GGATGCACGTGATAGT", "relative binding free energy": -0.01}
{"sequence": "TAAGTCACGTGTAAAG", "relative binding free energy": 0.1}
{"sequence": "TTATGCACGTGTCGTA", "relative binding free energy": -0.02}
{"sequence": "TGACTCACGTGGGTAG", "relative binding free energy": -0.03}
{"sequence": "CCTGTCACGTGTTAGG", "relative binding free energy": 0.22}
{"sequence": "TTGAGCACGTGAGGAG", "relative binding free energy": 0.13}
{"sequence": "TAGTTCACGTGATTAC", "relative binding free energy": 0.42}
{"sequence": "AAAGGCACGTGGTTAG", "relative binding free energy": -0.13}
{"sequence": "TTAGTCACGTGGGTGC", "relative binding free energy": 0.02}
{"sequence": "GCGGGCACGTGATTTG", "relative binding free energy": 0.18}
{"sequence": "GTGTTCACGTGGGCTT", "relative binding free energy": 0.17}
{"sequence": "GGGATCACGTGGGCTT", "relative binding free energy": 0.15}
{"sequence": "CTTGGCACGTGGATGA", "relative binding free energy": -0.02}
{"sequence": "TGGGTCACGTGAAATT", "relative binding free energy": 0.29}
{"sequence": "GTTGACACGTGTATCG", "relative binding free energy": 0.09}
{"sequence": "TTTGTCACGTGGTATC", "relative binding free energy": 0.11}
{"sequence": "GAAGACACGTGTGCGG", "relative binding free energy": 0.18}
{"sequence": "AGGTACACGTGCGGTA", "relative binding free energy": 0.06}
{"sequence": "GGGTCCACGTGGATTG", "relative binding free energy": 0.06}
{"sequence": "GGGTACACGTGTATTA", "relative binding free energy": 0.23}
{"sequence": "GGGGTCACGTGATCTG", "relative binding free energy": 0.15}
{"sequence": "GGTTACACGTGGCTTG", "relative binding free energy": 0.21}
{"sequence": "AAGCGCACGTGTGGGC", "relative binding free energy": -0.01}
{"sequence": "TTAGTCACGTGGGTGT", "relative binding free energy": 0.02}
{"sequence": "GGTTGCACGTGGCCTG", "relative binding free energy": -0.14}
{"sequence": "AGGTTCACGTGGGCGT", "relative binding free energy": 0.11}
{"sequence": "ATTCGCACGTGTGCGT", "relative binding free energy": -0.06}
{"sequence": "TGAGACACGTGTTTGG", "relative binding free energy": 0.01}
{"sequence": "TGGGGCACGTGCTGGA", "relative binding free energy": -0.17}
{"sequence": "TTTGCCACGTGGACGG", "relative binding free energy": -0.09}
{"sequence": "TATGTCACGTGGAGTC", "relative binding free energy": -0.02}
{"sequence": "GTGTGCACGTGCGGTG", "relative binding free energy": -0.07}
{"sequence": "AACTTCACGTGTTGGT", "relative binding free energy": 0.27}
{"sequence": "TGATCCACGTGGGTAT", "relative binding free energy": -0.11}
{"sequence": "TGTGACACGTGTTATG", "relative binding free energy": 0.05}
{"sequence": "GTAGACACGTGGCTGT", "relative binding free energy": -0.1}
{"sequence": "AAGATCACGTGTAGGA", "relative binding free energy": 0.1}
